Over roughly 81,000 sequences, “one-hybrid fitness for binding NBS DNA” has its median near -0.1; the highest 2% begin near 0.36. Some of the results follow.
B1: Caulobacter ParB omega fusion; a variant is named by its letters at X, in order, B8GW30 (parent)
chain: MESVVVGEPGMSEGRRGLGRGLSALLGEVDAAPAQAPGEQLGGSREAPIEILQRNPDQPRRTFREEDLEDLSNSIREKGVLQPILVRPSPDTAGEYQIVAGERAWRAAQRAGLKTVPIMVRELDDLAVLEIGIIENVQRADLNVLEEALSYKVLMEKFERTQENIAQTIGKSXSHVANXMRLLXLPDEVQSYLVSGELTAXHARAIAAAADPVALAKQIIEGGLSVRETEALARKAPNLSAGKSKGGRPPRVKDTDTQALESDLSSVLGLDVSIDHRGSTGTLTITYATLEQLDDLCNRLTRGI

Variants of: B1
Assay: one-hybrid fitness for binding NBS DNA (the Noc-binding site; scaled: cognate 1, non-cognate 0); higher = stronger binding
Settings: with NBS DNA site
How it was run: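 Values were rescaled so that cognate is 1 and non-cognate is 0. Each is a fitness, the log change in a variant's read ratio to wild type from Illumina reads of plasmids before and after selection, with three replicate libraries pooled and variants under 10 reads dropped. Selection of the Caulobacter ParB libraries, four specificity codons randomised, used E. coli USO with a HIS3 reporter, site 19 bp from the promoter, on M9-minus-histidine with 0.1 mM IPTG and 5 mM 3-AT for 48 hours at 37°C.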

Variant	one-hybrid fitness for binding NBS DNA
ILDE	≤ 0.2
QRTL	0.27
KLGC	≤ 0.2
GERI	≤ 0.2
QPVP	≤ 0.2
CISV	≤ 0.2
AIYP	≤ 0.2
DPAG	≤ 0.2
LRPS	≤ 0.2
DISN	≤ 0.2
SPTT	≤ 0.2
VGAG	≤ 0.2
QVGV	≤ 0.2
RDQD	≤ 0.2
ERVW	≤ 0.2
QDIT	≤ 0.2
NHRE	≤ 0.2
QGAE	0.284
NRGG	≤ 0.2
TMPK	≤ 0.2
HWFS	≤ 0.2
RRPS	0.568
SFAG	≤ 0.2
RTNI	≤ 0.2
IILL	≤ 0.2
DTRY	≤ 0.2

Variant	one-hybrid fitness for binding NBS DNA
LFSG	≤ 0.2
TRNS	0.237
LCPG	≤ 0.2
KYVG	≤ 0.2
GRGK	≤ 0.2
QRVP	≤ 0.2
MMTM	≤ 0.2
TATI	≤ 0.2
PDAL	≤ 0.2
QLDQ	≤ 0.2
RPAI	≤ 0.2
SYKF	≤ 0.2
PYTA	≤ 0.2
SGLT	≤ 0.2
TPTI	≤ 0.2
RKDT	0.498
CASR	≤ 0.2
FGKS	≤ 0.2
QGPD	≤ 0.2
MTDG	≤ 0.2
CQGE	≤ 0.2
WNST	≤ 0.2
QWLR	≤ 0.2
QAAD	≤ 0.2
HHCS	≤ 0.2
HVCG	≤ 0.2

Variant	one-hybrid fitness for binding NBS DNA
KWAE	≤ 0.2
YTFW	≤ 0.2
IQGL	≤ 0.2
TDKQ	≤ 0.2
RKGP	≤ 0.2
PYMT	≤ 0.2
RNLC	≤ 0.2
LRYL	≤ 0.2
AYSC	≤ 0.2
MMAS	≤ 0.2
VSRF	≤ 0.2
MASG	≤ 0.2
FACC	≤ 0.2
SMHL	≤ 0.2
PTKS	≤ 0.2
WFQV	≤ 0.2
RCWN	≤ 0.2
VLTI	≤ 0.2
QVIV	≤ 0.2
PCSF	≤ 0.2
QYMN	≤ 0.2
QMPI	≤ 0.2
IIGC	≤ 0.2
KQGR	≤ 0.2

Reference: a collection of fitness landscapes (doi:10.1016/j.celrep.2020.107928)
